# Results from the supplement of paper PMC11417369.
# ± gives the standard deviation of the averaged measurements. The list shows a part of the results.
# Tested on: PfAP2-EXP AP2 domain (GST-tagged)
# Test: gcPBM binding intensity (ln(normalized median fluorescence intensity)); higher = stronger DNA binding
# Summary of the method: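 The highest Masliner-normalised natural-log median intensity across replicate spots of either probe orientation is reported as binding intensity. GST-tagged P. falciparum DNA-binding domains expressed in E. coli were applied for 1 h to an Agilent 4 × 180k array of primer-extended double-stranded 36-bp intergenic genomic probes plus negative controls, and bound protein was detected with Alexa488 anti-GST antibody and scanned at 488 nm.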
row,Sequence,gcPBM binding intensity (ln)
1,TTAATACATACATTCACACACACTAATTGTATATTT [CACACA_site9362],8.64 ± 0.38
2,ATATATATATATAATACACACTTATGAAATGTCTAA [CACACA_site5077],9.93 ± 0.2
3,TGTACAAATATGTTGAAAATAAAATTTCAATATATT [XGTACX_negctrl_site13],8.19 ± 0.28
4,ATACGAATAAATTTCGCATGCAGCATATATATCAAT [TGCATGCA_site612],9.58 ± 0.47
5,AACGAAAATAAGAAAAGTACAAAAAATACCAAATAA [XGTACX_site6171],8.93 ± 0.38
6,ATATATGCATATATATGTACATATATATATATATAT [XGTACX_site7403],9.93 ± 0.4
7,AATAAATAAAAAATTACACACATATATATAAATATA [CACACA_site3434],8.38 ± 0.33
8,ATATTTTTAGATTCAGAAAAAAGATTCAACTTACTC [CACACA_negctrl_site1357],8.25 ± 0.45
9,TAAATTATAAATTGCACACATATTTTTATATTTATA [CACACA_site2976],8.27 ± 0.17
10,TATTTCATATGAAGAAGTACTATTAATAATTTCCTT [XGTACX_site6587],8.3 ± 0.28
11,GAGCGTAATCTATTTGCACACTTATTTGTTCTTAAA [CACACA_site673],9.04 ± 0.37
12,GTGTATAATATAGGATGTACAATAAAACACCGATTG [XGTACX_site7429],8.92 ± 0.47
13,ATAAAAACATAAACAAATCAAAAAAAAAAAAAAAAA [CACACA_negctrl_site13],7.9 ± 0.62
14,TTGTTTATCAACAGCACACACAACAACAACAACAAC [CACACA_site458],8.88 ± 0.21
15,CATTAAAATATGAGATGTACACAATATCTATTATAT [XGTACX_site4979],8.55 ± 0.21
16,ATGGATTATACGTGCACACATATATACCAATAAATA [CACACA_site4524],9.11 ± 0.56
17,AAATAATGAAACAAAGTGCATAAAAATATACATATA [GTGCAC_site9467],8.805 ± 0.035
18,ATTTAAATATCTTCTTTTTTTTTTTTTTTTGAAATT [CACACA_negctrl_site1074],8.06 ± 0.42
19,AATATATAAACCGAACGTACATATTTTTTATACACC [XGTACX_site2121],8.56 ± 0.25
20,GTGTACAGACACAAAATATATACATATATATATATA [CACACA_negctrl_site1796],9.87 ± 0.54
21,TGTTATATGTTCAAATGTACAAATCATATACATGTT [XGTACX_site3192],8.45 ± 0.38
22,TATTTTCATAATAAAAAAAAATAATTTAAAAAATAT [CACACA_negctrl_site748],8.13 ± 0.4

row,Sequence,gcPBM binding intensity (ln)
1,ATTATTTTCTCATAGAGTACAAATGTTGTTGTTGTC [XGTACX_site1062],8.53 ± 0.42
2,AATGGCAAAATAGGCACACACACATATACATATATA [CACACA_site1058],8.84 ± 0.34
3,TGTGCACATAATTAGTGTACATTTTTTATTTAGACA [XGTACX_site317],8.6 ± 0.071
4,ATTAGAGAATCGTAACCCAAATGAACATACTTAAAT [GTGCAC_negctrl_site363],8.57 ± 0.42
5,AGATTTAAATATCATACACACTTTATATATAATACA [CACACA_site4688],8.33 ± 0.38
6,CTTATTGATTTAAAAAGTACATATATGTATATACAC [XGTACX_site4072],8.52 ± 0.26
7,AAAAAAAAAAAAAATACACACATATAAATATAAATA [CACACA_site6189],8.3 ± 0.49
8,AATTATATTTGAAATACACACATAAAAATCATATAG [CACACA_site3468],8.51 ± 0.39
9,TTATATAGGTCATTCATAAATACAGTTTTTAAAAAA [CACACA_negctrl_site1340],8.24 ± 0.36
10,AAAAAAAAAAGACACACACACACATAAATATAAATA [CACACA_site6215],8.72 ± 0.44
11,GATTATTTTATAAGTACACACATTTATATATAATAA [CACACA_site2573],8.41 ± 0.33
12,GCATAAATTATCATAACATAAATATAAAAATATAAT [GTGCAC_negctrl_site55],8.36 ± 0.37
13,AATTCATTATATATACGTACATATTTCTGTATAAAA [XGTACX_site6371],8.64 ± 0.38
14,ATTTATTTCACAAAAACATGCAGTTTGAAATTGCCA [TGCATGCA_site910],8.49 ± 0.33
15,TTTCACCATATAAACGTGCACACTACAAAAATATAT [CACACA_site2547],9.245 ± 0.007
16,GGAAAGACAGTTCACAGTACCCAGTAACTCTACGGA [XGTACX_site2009],8.32 ± 0.45
17,ATAATACAATTTATAACACACACACTATAATACATA [CACACA_site8338],8.73 ± 0.52
18,AAATAATAAATTATAACACACATATATATATATATA [CACACA_site4045],10 ± 0.47
19,TTCATGCTTATATGTGCACACACAAAAGAAAAGAAA [CACACA_site1656],8.95 ± 0.16
20,AAATCAAAAACGTTTACACACATTCTTATTTAAATA [CACACA_site790],8.74 ± 0.62
21,TACAGAAATTTATATATATATATATATATATATATA [XGTACX_negctrl_site209],9.95 ± 0.62
22,TACATATATTTTTTATGTACTTACTTGTGTGTTTAT [XGTACX_site5126],8.52 ± 0.38
